In PMC2699145 (The Journal of Cell Biology, 2009):

Molecular target: T1, MBP-tagged RIL (human, UniProt P50479 1-330)
T1 sequence (looked up): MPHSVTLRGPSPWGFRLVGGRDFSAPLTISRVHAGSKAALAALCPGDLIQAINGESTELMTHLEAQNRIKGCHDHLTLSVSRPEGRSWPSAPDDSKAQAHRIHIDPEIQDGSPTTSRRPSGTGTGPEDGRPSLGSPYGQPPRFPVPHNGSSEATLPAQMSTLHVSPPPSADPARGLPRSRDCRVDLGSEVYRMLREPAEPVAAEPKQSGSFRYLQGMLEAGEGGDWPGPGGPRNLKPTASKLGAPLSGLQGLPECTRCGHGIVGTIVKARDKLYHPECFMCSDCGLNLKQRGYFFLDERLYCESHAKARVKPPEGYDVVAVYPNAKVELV
Assay: pull-down

B1: GST fusion protein containing the SH2 domain of Src ([…]) (domain or fragment)
chain: not shown
**Q.** Does B1 bind?
**A.** Result: binds
